# PubChem BioAssay (Tox21)
# The inconclusive results got no clear call from the source; some entries with a clear call stand among them for comparison. For some of these results: No potency is given beside an inconclusive call; the fits are too rough. Activity calls are given as the source filed them. Unless noted, calls follow the shape of the dose curve; as a rule, active = well fitted curve in the direction sought with a large enough effect in the repeat runs; inconclusive = weak or mixed curves; inactive = no such curve, though single readings can be large; an effect the other way counts as inactive or inconclusive.
# Legend:
# [1] = qHTS assay to identify small molecule antagonists of the sonic hedgehog signaling (Shh) pathway - cell viability counter screen (AID 1259367); also: nearly all actives have a fitted effect of over 55% in size; also: potency is read from the fitted curve at half-maximal effect
# Method in brief: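 Cells: 3T3 Gli1-Luc, 2,000/well, 4 hr pre-incubation. Compounds in DMSO, then conditioned medium. Incubation 24 hr, 37C, 5% CO2. CellTiter-Fluor at 23 hr, 1 hr, fluorescence.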
# [2] = target: Estrogen receptor beta (Homo sapiens) (UniProt Q92731); test: qHTS assay to identify small molecule antagonists of the estrogen receptor beta (ER-beta) signaling pathway (AID 1259378; active = well fitted inhibition curve with a large enough effect in the signal ratio in the repeat runs, not every such curve was filed as active; inconclusive = weak or mixed curves, or effect the other way; inactive = no such curve, though single readings can be large or run the other way; the % refers to the signal ratio; also: % is scaled to controls: 0 for no effect and ±100 for the full control effect); settings: ER-beta-UAS-bla HEK293T, beta-lactamase FRET ratio, 16 h; activity, negative = inhibition: at 92.4 µM (top of the series) unless noted
# Method in brief: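 Antagonist mode: compounds added to beta-lactamase reporter HEK293T ER-beta-UAS cells stimulated with E2 (1nM final), 16 hr at 37C. LiveBLAzer B/G FRET substrate, 2 hours room temperature, fluorescence read-out.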
# [3] = qHTS assay to identify small molecule agonists of the estrogen receptor beta (ER-beta) signaling pathway - cell viability counter screen (AID 1259380); also: potency is read from the fitted curve at half-maximal effect; nearly all actives have a fitted effect of over 30% in size
# Method in brief: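 HEK293T ER-beta-UAS-bla; 2% CS-FBS; 6 hr pre-plate, 16 hr cpd at 37C/5% CO2; LiveBLAzer read first, then CellTiter-Glo 30 min RT, luminescence.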
# [4] = target: Progesterone receptor (Homo sapiens) (UniProt P06401); test: qHTS assay to identify small molecule antagonists of the progesterone receptor (PR) signaling pathway (AID 1346795; active = well fitted inhibition curve with a large enough effect in the signal ratio in the repeat runs, not every such curve was filed as active; inconclusive = weak or mixed curves; the % refers to the signal ratio; also: potency is read from the fitted curve at half-maximal effect; as to activity change, negative = inhibition: % is scaled to controls: 0 for no effect and ±100 for the full control effect); settings: PR-UAS-bla HEK293T, beta-lactamase FRET ratio, 16 h; activity change, negative = inhibition: at 92.4 µM (top of the series) unless noted
# Method in brief: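 Antagonist mode: compounds tested against 1 nM (final) promegestone stimulation in HEK293T cells expressing PR-UAS-bla reporter, 16 hr at 37C, 5% CO2; beta-lactamase activity detected via B/G FRET substrate after 2 hr at room temperature.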
# [5] = qHTS assay to identify small molecule agonists of the sonic hedgehog signaling (Shh) pathway (AID 1259368; calls by dose curve;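 also: NIH/3T3-derived 3T3Gli1-Luc cells carrying a stable Gli1-driven firefly luciferase reporter; % is scaled to controls: 0 for no effect and ±100 for the full control effect; nearly all actives have a fitted effect of over 15% in size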)
# Method in brief: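 3T3Gli1-Luc (NIH/3T3 clone, stable Gli1-Luc); 4 hr pre-incubation, then cpd in DMSO 24 hr, 37 C/5% CO2; luciferase reagent 30 min RT; luminescence.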
# [6] = target: Estrogen receptor beta (Homo sapiens) (UniProt Q92731); test: qHTS assay to identify small molecule agonists of the estrogen receptor beta (ER-beta) signaling pathway (AID 1259377; active = well fitted activation curve with a large enough effect in the signal ratio in the repeat runs, not every such curve was filed as active; inconclusive = weak or mixed curves, or effect the other way; the % refers to the signal ratio; also: % is scaled to controls: 0 for no effect and ±100 for the full control effect); settings: ER-beta-UAS-bla HEK293T, beta-lactamase FRET ratio, 16 h; activation: at 92.4 µM (top of the series) unless noted
# Method in brief: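 Agonist mode cell assay in GripTite HEK293T cells expressing an ER-beta fusion that drives beta-lactamase from an Upstream Activator Sequence; 16 hr compound exposure at 37C, then 2 h LiveBLAzer B/G FRET substrate at room temperature, fluorescence read-out.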
# [7] = qHTS assay to identify small molecule agonists of the estrogen receptor alpha (ER-alpha) signaling pathway in the presence of an antagonist - cell viability counter screen (AID 1259386);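 also: potency is read from the fitted curve at half-maximal effect; cells exposed to compounds for 22 h at 37 °C before the viability read; nearly all actives have a fitted effect of over 30% in size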
# Method in brief: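 VM7Luc4E2, stripped-serum pre-culture 5 d; 24hr plating; +ICI-182,780 10.0nM final; cpds 15 conc, 22hr, 37C/5% CO2; CellTiter-Fluor added at 21hr, fluorescence 1hr later.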
# [8] = target: Progesterone receptor (Homo sapiens) (UniProt P06401); test: qHTS assay to identify small molecule agonists of the progesterone receptor (PR) signaling pathway (AID 1346784; calls by dose curve; also: % is scaled to controls: 0 for no effect and ±100 for the full control effect; nearly all actives have a fitted effect of over 30% in size); settings: PR-UAS-bla HEK293T, beta-lactamase FRET ratio, 16 h; activation: at 92.4 µM (top of the series) unless noted
# Method in brief: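 Cells (PR-UAS-bla HEK 293T, GripTite) were plated in assay medium containing 2% charcoal-stripped FBS and incubated 6 hr. Test compounds in DMSO were added for 16 hr at 37C. FRET substrate was then loaded for 2 hr at room temperature before fluorescence reading.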
# [9] = qHTS assay to identify small molecule agonists of the progesterone receptor (PR) signaling pathway - cell viability counter screen (AID 1346799; calls by dose curve; also: potency is read from the fitted curve at half-maximal effect; nearly all actives have a fitted effect of over 45% in size)
# Method in brief: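 Cells (PR-UAS-bla HEK293T) are plated at 3,000/well in 2% charcoal-stripped FBS medium, rested 6 hr, dosed and incubated 16 hr at 37C. CellTiter-Glo is then added and luminescence measured after 30 min at room temperature.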
# [10] = qHTS assay to identify small molecule antagonists of the progesterone receptor (PR) signaling pathway - cell viability counter screen (AID 1346798); also: potency is read from the fitted curve at half-maximal effect; nearly all actives have a fitted effect of over 50% in size
# Method in brief: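 Counter screen for cytotoxicity: viability of PR-UAS-bla HEK293T cells was measured with CellTiter-Glo luminescence following 16 hr compound exposure in the presence of R5020.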
# [11] = target: Thyrotropin receptor (Homo sapiens) (UniProt P16473); test: qHTS assay to identify small molecule antagonists of the thyroid stimulating hormone receptor (TSHR) signaling pathway (AID 1259385; calls by dose curve; also: % is scaled to controls: 0 for no effect and ±100 for the full control effect; nearly all actives have a fitted effect of over 20% in size); settings: TSHR-HEK293 cAMP HTRF, TSH-stimulated antagonist mode; activity change, negative = inhibition: at 92.4 µM (top of the series) unless noted
# Method in brief: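 Antagonist mode: compound-treated TSHR-expressing HEK293 cells were stimulated with 1.5 ng/mL TSH (final) in presence of Ro20-1724 for 30 min at RT. HTRF cAMP detection after 1 h; each compound tested at 15 concentrations, triplicate.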
# [12] = qHTS assay to identify small molecule antagonists of the TGF-beta/Smad signaling pathway - cell viability counter screen (AID 1346824); also: potency is read from the fitted curve at half-maximal effect; nearly all actives have a fitted effect of over 50% in size
# Method in brief: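 Cytotoxicity counter-screen run in the same wells as the beta-lactamase Smad reporter read: CellTiter-Glo luminescence after 30 min at room temperature. HEK 293T SBE-bla cells had 5 hr compound exposure at 37 C with TGF-beta1 (0.25 ng/mL stock).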
# [13] = qHTS assay to identify small molecule agonists of the androgen receptor (AR) signaling pathway in the presence of an antagonist - cell viability counter screen (AID 1259379); also: potency is read from the fitted curve at half-maximal effect; nearly all actives have a fitted effect of over 25% in size
# Method in brief: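 Cells: MDA-kb2 (MMTV-luc, AR and GR elements), 3,000/well, 5 hr settle. Added: nilutamide 3.0uM final, then compounds (15 conc.). Incubation: 16 hr, 37C, no CO2. Read-out: CellTiter-Fluor, 1 hr, fluorescence.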
# Tags tell the direction and shape of the fitted curve.
# UniProt Q92731, sequence (Q92731 whole entry, looked up, the tested form may be a part): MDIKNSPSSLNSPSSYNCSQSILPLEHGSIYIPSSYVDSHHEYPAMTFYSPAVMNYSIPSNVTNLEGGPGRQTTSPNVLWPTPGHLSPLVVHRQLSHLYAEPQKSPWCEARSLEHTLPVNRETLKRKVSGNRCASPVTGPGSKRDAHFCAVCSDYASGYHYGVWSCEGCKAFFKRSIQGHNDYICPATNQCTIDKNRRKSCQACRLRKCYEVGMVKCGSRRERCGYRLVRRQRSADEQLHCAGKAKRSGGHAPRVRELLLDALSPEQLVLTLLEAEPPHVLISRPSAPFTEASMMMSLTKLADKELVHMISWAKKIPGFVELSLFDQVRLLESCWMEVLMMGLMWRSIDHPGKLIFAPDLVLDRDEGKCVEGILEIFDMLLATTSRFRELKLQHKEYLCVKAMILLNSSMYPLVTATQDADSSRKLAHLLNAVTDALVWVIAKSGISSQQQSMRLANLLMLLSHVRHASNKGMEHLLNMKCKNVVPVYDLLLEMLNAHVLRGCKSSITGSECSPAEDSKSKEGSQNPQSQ
# UniProt P06401, sequence (P06401 whole entry, looked up): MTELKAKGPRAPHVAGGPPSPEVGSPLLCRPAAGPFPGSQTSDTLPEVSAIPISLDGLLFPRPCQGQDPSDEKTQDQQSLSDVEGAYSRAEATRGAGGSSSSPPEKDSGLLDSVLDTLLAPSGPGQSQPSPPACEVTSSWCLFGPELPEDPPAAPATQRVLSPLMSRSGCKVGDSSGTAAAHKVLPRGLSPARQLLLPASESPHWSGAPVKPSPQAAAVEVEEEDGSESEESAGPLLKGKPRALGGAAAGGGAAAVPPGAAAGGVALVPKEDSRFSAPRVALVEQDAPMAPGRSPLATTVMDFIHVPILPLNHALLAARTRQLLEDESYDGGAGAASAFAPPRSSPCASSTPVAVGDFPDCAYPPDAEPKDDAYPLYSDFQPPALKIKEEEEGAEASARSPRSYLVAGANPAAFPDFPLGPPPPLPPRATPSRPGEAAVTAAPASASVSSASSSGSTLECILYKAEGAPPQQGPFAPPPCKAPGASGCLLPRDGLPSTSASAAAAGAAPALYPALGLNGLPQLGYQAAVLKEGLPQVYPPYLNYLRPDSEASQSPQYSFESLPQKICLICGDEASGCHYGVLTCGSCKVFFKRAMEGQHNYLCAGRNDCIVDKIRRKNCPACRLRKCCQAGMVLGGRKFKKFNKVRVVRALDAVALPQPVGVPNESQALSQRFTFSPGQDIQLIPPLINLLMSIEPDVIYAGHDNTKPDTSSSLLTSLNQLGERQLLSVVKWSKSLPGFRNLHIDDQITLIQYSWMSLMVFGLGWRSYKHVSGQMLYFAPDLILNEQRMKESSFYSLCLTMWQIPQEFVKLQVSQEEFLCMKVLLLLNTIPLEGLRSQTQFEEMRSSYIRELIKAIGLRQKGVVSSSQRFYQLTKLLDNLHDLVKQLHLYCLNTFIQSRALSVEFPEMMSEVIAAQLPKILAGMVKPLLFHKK
# UniProt P16473, sequence (P16473 whole entry, looked up): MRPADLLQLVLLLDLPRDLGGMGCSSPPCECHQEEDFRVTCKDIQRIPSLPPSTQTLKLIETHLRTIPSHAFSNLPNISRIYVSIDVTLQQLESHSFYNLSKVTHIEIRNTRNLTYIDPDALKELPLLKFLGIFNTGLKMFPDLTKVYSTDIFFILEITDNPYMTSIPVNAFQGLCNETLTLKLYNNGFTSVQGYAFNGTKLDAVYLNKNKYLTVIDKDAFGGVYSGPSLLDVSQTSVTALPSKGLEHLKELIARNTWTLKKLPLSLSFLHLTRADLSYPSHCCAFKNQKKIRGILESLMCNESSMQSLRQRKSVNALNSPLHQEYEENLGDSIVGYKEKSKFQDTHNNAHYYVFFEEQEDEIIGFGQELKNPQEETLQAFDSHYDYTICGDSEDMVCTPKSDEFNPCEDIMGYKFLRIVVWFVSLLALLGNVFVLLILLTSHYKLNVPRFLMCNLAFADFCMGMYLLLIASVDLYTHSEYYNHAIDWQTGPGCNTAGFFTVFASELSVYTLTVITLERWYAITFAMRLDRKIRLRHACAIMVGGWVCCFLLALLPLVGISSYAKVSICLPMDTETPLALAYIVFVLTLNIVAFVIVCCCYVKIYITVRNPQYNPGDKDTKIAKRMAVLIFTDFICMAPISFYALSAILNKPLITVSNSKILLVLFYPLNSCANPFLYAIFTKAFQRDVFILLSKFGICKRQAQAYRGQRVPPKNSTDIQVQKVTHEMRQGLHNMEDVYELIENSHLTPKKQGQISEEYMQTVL
compound,measurement,setting,value
CC(C)(C)N(NC(=O)c1ccc(Cl)cc1)C(=O)c1ccccc1,Potency,[1],active: 3.83 µM
same,"activity, negative = inhibition",[2],inconclusive: -39.6%
same,Potency,[3],"inconclusive [cytotoxic, single point]"
same,"activity change, negative = inhibition",[4],inconclusive: -43.8%
C=CC(C)(CCC=C(C)C)OC(=O)c1ccccc1N (stereo not given),Potency,[5],inactive
COP(=O)(OC)Oc1ccc([N+](=O)[O-])cc1,Potency,[1],inactive
same,Potency,[6],inactive
same,Potency,[7],"inconclusive [cytotoxic, partial curve]"
same,activation,[8],inconclusive: -3.26%
same,Potency,[4],"inconclusive [falling, partial curve]"
same,Potency,[9],"inconclusive [rising, partial curve]"
CNC(=O)Oc1cccc2c1OC(C)(C)O2,Potency,[5],inactive
same,Potency,[10],"inconclusive [rising, full curve]"
BrCCCCBr,Potency,[1],inactive
same,Potency,[11],inactive
same,Potency,[12],"inconclusive [cytotoxic, single point]"
CC(C)(C)c1cc([N+](=O)[O-])cc(C(C)(C)C)c1O,Potency,[1],"inconclusive [cytotoxic, partial curve]"
same,"activity, negative = inhibition",[2],inconclusive: -47.2%
same,Potency,[13],active: 8.63 µM
same,Potency,[3],"inconclusive [cytotoxic, single point]"
same,Potency,[7],active: 8.63 µM
same,Potency,[4],active: 30.6 µM
same,Potency,[10],"inconclusive [cytotoxic, single point]"
same,Potency,[9],"inconclusive [rising, partial curve]"
same,Potency,[12],"inconclusive [cytotoxic, partial curve, poor fit]"
